In all, about 33,000 sequences were measured (“E-score (-0.5 to 0.5)”: median about -0.035, highest 2% from about 0.34 on). The list shows a part of the results.
target: T1, Mot3 (UniProt P54785); assay: PBM E-score (8-mer binding enrichment) (E-score (-0.5 to 0.5)); higher = stronger / more preferred TF binding; most listed sequences are background and not binding sites; settings: protein concentration: 200 nM; construct: GST-full length
T1 sequence: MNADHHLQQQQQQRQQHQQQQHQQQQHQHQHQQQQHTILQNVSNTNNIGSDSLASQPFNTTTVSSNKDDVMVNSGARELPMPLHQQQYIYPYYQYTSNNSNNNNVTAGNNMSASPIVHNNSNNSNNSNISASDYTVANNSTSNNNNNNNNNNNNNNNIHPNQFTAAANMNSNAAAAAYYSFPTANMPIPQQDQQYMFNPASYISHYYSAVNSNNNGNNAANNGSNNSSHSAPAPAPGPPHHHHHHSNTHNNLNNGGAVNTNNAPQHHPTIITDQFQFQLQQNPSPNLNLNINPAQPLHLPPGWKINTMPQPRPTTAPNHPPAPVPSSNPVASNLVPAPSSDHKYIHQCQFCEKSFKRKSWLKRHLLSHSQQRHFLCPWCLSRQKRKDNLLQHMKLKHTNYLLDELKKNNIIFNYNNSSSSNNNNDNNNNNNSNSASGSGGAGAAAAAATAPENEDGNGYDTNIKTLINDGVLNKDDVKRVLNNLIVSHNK
Procedure, shortened: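 Universal all-10-mer Agilent arrays, fresh or stripped once, were converted to double-stranded form by primer extension. GST-tagged yeast transcription factors from PURExpress in vitro transcription/translation, full-length or DNA-binding domain only, were applied at about 100-200 nM and detected with fluorescent anti-GST. After masliner normalisation, the Universal PBM Analysis Suite scored each ungapped eight-base word together with its reverse complement by E-score.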

First: AGGAACAC
Second: AACCTACA
The “PBM E-score” value of the first is higher: 0.404 for the first, 0.247 for the second.

Going from CACCTAGA to TACTCGGA, the “PBM E-score” value rises from -0.0837 to -0.0585.

Compared with GAGGGCAA, TACTGGCA is lower in “PBM E-score” value: -0.0612 for the first, -0.257 for the second.

First: GTCTAGAC
Second: ATACCGCC
The “PBM E-score” value of the first is lower: -0.248 for the first, -0.117 for the second.

Compared with GTCTTGTA, ATCTGGCC is lower in “PBM E-score” value: 0.24 for the first, -0.206 for the second.

Compared with TAATTGCA, TAATGGTA is lower in “PBM E-score” value: 0.175 for the first, -0.0912 for the second.

Compared with CCTCCCAC, AAATTGTA is higher in “PBM E-score” value: -0.198 for the first, 0.156 for the second.

Going from TAGTAACA to CAGCCGTC, the “PBM E-score” value falls from 0.218 to -0.241.

First: AATGCCTC
Second: ATTGTATG
The “PBM E-score” value of the first is lower: -0.0227 for the first, -0.0226 for the second.

Compared with CGCTATTC, GCAGCTTA is higher in “PBM E-score” value: -0.0135 for the first, 0.0614 for the second.

First: ACGAGTTA
Second: CCCCAAGA
The “PBM E-score” value of the first is higher: 0.195 for the first, -0.0859 for the second.

Compared with TACTGCGA, CACGGACA is higher in “PBM E-score” value: -0.17 for the first, -0.0498 for the second.

First: ATTCATTC
Second: CATTTTAC
The “PBM E-score” value of the first is lower: -0.0178 for the first, 0.298 for the second.

First: AGGCCCCT
Second: TCAAACGA
The “PBM E-score” value of the first is higher: 0.185 for the first, 0.0676 for the second.

Going from GACATATA to CTCCATGA, the “PBM E-score” value falls from 0.125 to -0.0764.

First: AAGCGTAA
Second: AGCCATAA
The “PBM E-score” value of the first is higher: 0.0617 for the first, -0.00806 for the second.

Going from AGACATCC to GAGACTTA, the “PBM E-score” value rises from -0.114 to -0.00325.

Compared with ACCAAATC, AGATTACC is higher in “PBM E-score” value: -0.166 for the first, 0.157 for the second.

Going from CTTCGGCA to AGGTTCTC, the “PBM E-score” value rises from -0.119 to 0.157.

First: GTAAGTAC
Second: CTTATGCA
The “PBM E-score” value of the first is higher: 0.175 for the first, 0.0715 for the second.

Compared with AGCACGAA, GCCTGCTA is higher in “PBM E-score” value: 0.121 for the first, 0.25 for the second.

Compared with AGTGAGGC, CCACCCAC is lower in “PBM E-score” value: 0.0478 for the first, -0.197 for the second.

Going from AAGACCGA to AGCGCTAT, the “PBM E-score” value falls from 0.0842 to -0.0279.

Compared with CCGGGTTA, AGAACTCG is higher in “PBM E-score” value: -0.216 for the first, 0.0988 for the second.

Compared with CAGGTTTC, GCAGTTCA is lower in “PBM E-score” value: 0.122 for the first, -0.221 for the second.

First: CGTTCTGA
Second: CCGGAGGC
The “PBM E-score” value of the first is lower: -0.16 for the first, -0.102 for the second.

First: CTCTCACA
Second: CGTTACTA
The “PBM E-score” value of the first is lower: 0.0076 for the first, 0.0504 for the second.

First: AGTCACGA
Second: AAGTCAAT
The “PBM E-score” value of the first is higher: 0.288 for the first, 0.00037 for the second.

Going from ATTATCCG to ATTCCTAC, the “PBM E-score” value rises from -0.00522 to 0.0233.

Going from CTGTGAGA to AAGCGCTC, the “PBM E-score” value falls from -0.01 to -0.182.

Going from GTGTGCCA to AGAGCAAC, the “PBM E-score” value rises from -0.0899 to 0.0531.

Going from AGTATTTG to GATGACGC, the “PBM E-score” value falls from 0.0214 to 0.0115.

Going from CGGCAATC to GAAAGACA, the “PBM E-score” value rises from -0.109 to 0.0377.

First: CGCATGGC
Second: GGTCGGGA
The “PBM E-score” value of the first is higher: -0.00273 for the first, -0.182 for the second.

First: CTCATTCC
Second: ACATACCA
The “PBM E-score” value of the first is lower: -0.113 for the first, 0.172 for the second.

Compared with CCGGATCG, ACGTAACT is higher in “PBM E-score” value: -0.243 for the first, 0.104 for the second.

Compared with AACGTTAT, ATTGCGGG is lower in “PBM E-score” value: 0.123 for the first, 0.0282 for the second.

Compared with ATTTTGAG, CGGTCACC is lower in “PBM E-score” value: -0.122 for the first, -0.215 for the second.

Going from AGCGGGCA to CAGTTGCG, the “PBM E-score” value rises from -0.212 to -0.124.

Compared with AAGCTAAA, ACAGTTTG is lower in “PBM E-score” value: -0.0059 for the first, -0.0633 for the second.

Compared with AATCCACC, ACACTGGT is higher in “PBM E-score” value: -0.179 for the first, -0.0585 for the second.

First: ATAACGTG
Second: CCGTACAA
The “PBM E-score” value of the first is higher: 0.229 for the first, -0.0477 for the second.

First: CGAGCCAG
Second: AGCCTATC
The “PBM E-score” value of the first is higher: -0.0469 for the first, -0.23 for the second.

Going from CAAGCCAG to CAAATGGA, the “PBM E-score” value falls from 0.069 to -0.0484.

First: ACTGTACG
Second: CATACCAG
The “PBM E-score” value of the first is higher: -0.0297 for the first, -0.231 for the second.

Compared with GCTGGTTA, AAAGTTAG is higher in “PBM E-score” value: 0.0678 for the first, 0.145 for the second.

Going from ATGTCGCC to CACAAAAA, the “PBM E-score” value rises from -0.0401 to 0.147.

Compared with ATATGAAG, ATGTGCAA is higher in “PBM E-score” value: -0.137 for the first, 0.03 for the second.

Compared with CACTAGCC, ACGATTAT is higher in “PBM E-score” value: -0.0923 for the first, 0.0588 for the second.

Going from AGCAGGTG to AACCGCCT, the “PBM E-score” value falls from 0.167 to -0.068.

First: GCGCCCCA
Second: AACAGCTC
The “PBM E-score” value of the first is lower: -0.192 for the first, -0.162 for the second.

Going from AGGAAATG to TAAGTAAA, the “PBM E-score” value falls from 0.262 to 0.188.

First: AAATCCGT
Second: GACTCTCC
The “PBM E-score” value of the first is higher: -0.115 for the first, -0.167 for the second.

Going from GACTGACA to TTCCGGAA, the “PBM E-score” value falls from -0.0818 to -0.148.

Compared with CAAAGAAA, ACCTTGCG is lower in “PBM E-score” value: 0.131 for the first, 0.0557 for the second.

Going from CTACCGGC to AGAGTCCA, the “PBM E-score” value falls from -0.145 to -0.225.

Going from ATTCGGTG to AAGCTACT, the “PBM E-score” value falls from 0.0583 to -0.029.

Compared with ACCCCGGG, ATTATCGG is higher in “PBM E-score” value: -0.269 for the first, -0.144 for the second.

Compared with GGGAGTCA, GCTCCATA is lower in “PBM E-score” value: -0.264 for the first, -0.293 for the second.

First: CGTGCTCC
Second: ACCCCATG
The “PBM E-score” value of the first is lower: -0.248 for the first, 0.106 for the second.

Going from CTGCAAGA to ATAACCAT, the “PBM E-score” value falls from 0.0551 to 0.0127.

Compared with GACAGAAC, ATGAAGGA is higher in “PBM E-score” value: -0.0671 for the first, 0.224 for the second.

First: GCCACCCA
Second: ATCAATTG
The “PBM E-score” value of the first is lower: -0.223 for the first, 0.122 for the second.

Compared with ACCTCGCG, CTCTTTGA is higher in “PBM E-score” value: -0.164 for the first, -0.0974 for the second.

First: ACCTACCG
Second: CGCTGAAG
The “PBM E-score” value of the first is higher: 0.0568 for the first, -0.201 for the second.

First: ACGTGCAG
Second: GTTATGAA
The “PBM E-score” value of the first is lower: 0.0565 for the first, 0.159 for the second.

Compared with CAATTGAA, CCGTTGCA is lower in “PBM E-score” value: -0.0107 for the first, -0.0576 for the second.

Compared with CTGGATGC, GAGTCATC is lower in “PBM E-score” value: -0.174 for the first, -0.243 for the second.

Compared with AACTCCTT, GGGGATGA is lower in “PBM E-score” value: 0.0524 for the first, -0.289 for the second.

First: AAGTGAGC
Second: TAAGCCGA
The “PBM E-score” value of the first is lower: -0.16 for the first, -0.0394 for the second.

Compared with CCCACACA, ACGACCTG is higher in “PBM E-score” value: -0.142 for the first, -0.0223 for the second.

Compared with ACTACCTC, GTAAGCTA is higher in “PBM E-score” value: -0.0675 for the first, -0.0549 for the second.

Compared with ATAAACCC, CAAACAAC is higher in “PBM E-score” value: 0.0128 for the first, 0.162 for the second.

Compared with ACTTCTGA, AGCGTCAG is lower in “PBM E-score” value: -0.101 for the first, -0.191 for the second.

First: ACTTCGTA
Second: CCTGATGA
The “PBM E-score” value of the first is lower: 0.058 for the first, 0.0626 for the second.

First: AAGAATCG
Second: GACAACGC
The “PBM E-score” value of the first is higher: 0.038 for the first, 0.0171 for the second.

Compared with ACTTACCC, ACGTGAGC is lower in “PBM E-score” value: 0.0416 for the first, -0.0873 for the second.

Compared with AGACCGTG, GCCTACAC is higher in “PBM E-score” value: 0.06 for the first, 0.344 for the second.

Going from CTGCGGGA to ATTCGTGG, the “PBM E-score” value rises from -0.182 to -0.0319.

First: GCATCGAA
Second: AATCTACT
The “PBM E-score” value of the first is lower: -0.204 for the first, -0.0291 for the second.

First: AGCTCGCC
Second: GTCTTGCA
The “PBM E-score” value of the first is lower: -0.115 for the first, -0.00912 for the second.

Compared with GCATCACA, ACGCGTCA is higher in “PBM E-score” value: 0.0593 for the first, 0.253 for the second.

Compared with GTCTGACA, CCGACCGC is lower in “PBM E-score” value: 0.00096 for the first, -0.327 for the second.

Compared with TAGGACGA, GAATCCGC is higher in “PBM E-score” value: -0.0724 for the first, -0.0662 for the second.

Going from TAACATCA to ACCCAGGG, the “PBM E-score” value falls from 0.25 to -0.216.

First: CGAGTCAA
Second: CGGCGCCG
The “PBM E-score” value of the first is higher: -0.127 for the first, -0.179 for the second.

Source: the supplement of paper PMC3334620
